Measurements reported in PubChem BioAssay AID504832 (National Center for Advancing Translational Sciences (NCATS), 2011).
Screen size: about 310,000 compounds; about 18,000 (5.8%) were called active. Inconclusive means that the source gave no clear call. Such entries were picked first, then a sample of the others. Calls follow the shape of the dose curve; as a rule, active = well fitted inhibition curve with a large enough effect; inconclusive = small, poorly fitted or top-dose-only effect, or another doubt; inactive = no such curve, though single readings can be large or run the other way. Potencies of inconclusive entries are left out as doubtful fits.

assay: Primary qHTS for delayed death inhibitors of the malarial parasite plastid, 48 hour incubation; details: P. falciparum luciferase growth in erythrocytes; series mostly up to 28.7 µM
Outline: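 Luciferase-expressing P. falciparum in infected erythrocytes (2% hematocrit, 0.1% parasitemia final) in RPMI 1640/0.5% Albumax were exposed to compound for 48 hours at 37 C, 5% CO2; growth read as luminescence.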
Potency is read from the fitted curve at half-maximal effect; tags tell the direction and shape of the fitted curve.

SMILES | Potency
Cc1ccc(C(=O)O/N=C(/c2nonc2N)N(C)C)cc1 | inconclusive [inhibitor, single point]
CCCCNC(=O)C(Sc1ccccc1)c1ccccc1 (stereo not drawn) | inactive
Cc1ccc(Cl)c(NC(=O)CCl)c1Cl | inconclusive [inhibitor, partial curve, poor fit]
CC(C)(C)C(=O)NC1CC2CCCC(C1)N2C(=O)Nc1ccccc1 (stereo not drawn) | inconclusive [inhibitor, full curve]
O=c1[nH]c(C2CCN(S(=O)(=O)c3ccc4c(c3)OCCO4)CC2)nc2c1nnn2Cc1ccccc1F | inconclusive [inhibitor, partial curve, poor fit]
CCOC(=O)N1CCC(NC(=O)C(Cc2ccccc2)NC(=O)C2CCCCC2)CC1 (stereo not drawn) | inconclusive [inhibitor, partial curve, poor fit]
Cc1cc(-c2nn3c(-c4ccccc4)nnc3s2)c2ccccc2n1 | inconclusive [inhibitor, partial curve]
NS(=O)(=O)c1ccc(CCNC(=O)CCCn2c(SCC(=O)N3CCCC3)nc3ccsc3c2=O)cc1 | inactive
COc1cccc(CC(=O)N(C)C2CCCN(Cc3ccccc3F)C2)c1 (stereo not drawn) | inconclusive [inhibitor, partial curve, poor fit]
Cc1onc(-c2c(F)cccc2Cl)c1C(=O)OCC(=O)c1c(N)n(C)c(=O)n(C)c1=O | inconclusive [inhibitor, partial curve, poor fit]
CCOC(=O)C1=C(CN2CCC(C)CC2)NC(=O)NC1c1ccc(Cl)cc1 (stereo not drawn) | inconclusive [inhibitor, single point]
CC1Nc2ncnc(N3CCc4ccccc4C3)c2N(Cc2ccc(Cl)cc2)C1=O (stereo not drawn) | active: 13.1 µM
Nc1c(S(=O)(=O)c2ccccc2)c2nc3ccccc3nc2n1C1CC1 | inconclusive [inhibitor, partial curve]
CCOC(=O)c1ccc(NC(=O)N2CCN(CCc3ccccc3)CC2)cc1 | inconclusive [inhibitor, partial curve, poor fit]
CC1OC(Oc2c(-c3cc(O)c(O)c(O)c3)oc3cc(O)cc(O)c3c2=O)C(O)C(O)C1O (stereo not drawn) | active: 9.28 µM
COc1cc(C(c2c(C)[nH]n(-c3ccccc3)c2=O)c2c(C)[nH]n(-c3ccccc3)c2=O)cc(OC)c1OC | inconclusive [inhibitor, single point]
COc1cc(/C=C/c2ccc3cccc(O)c3n2)cc(Br)c1OC | inconclusive [inhibitor, partial curve]
Cc1cc(C(=O)NNC(=O)/C=C/c2ccccc2Cl)c(C)o1 | inconclusive [inhibitor, single point]
CCCCN1C(=O)C(O)(CC(=O)c2c(C)coc2C)c2ccccc21 (stereo not drawn) | inconclusive [inhibitor, partial curve, poor fit]
O=C(C1CCN(C2CCN(Cc3ccc4cc(F)ccc4n3)CC2)CC1)N1CCCC1 | inconclusive [inhibitor, single point]
CCCC(=O)Nc1cccc(NC(=O)c2cccc([N+](=O)[O-])c2C)c1 | inactive
CCCOc1ccc(/C=N/NC(=O)c2ccc3c(c2)OCO3)c(OCCC)c1 | active: 5.86 µM
CCCC(=NCCc1c(C)[nH]c2ccccc12)C1=C(O)CC(c2ccccc2)CC1=O (stereo not drawn) | active: 13.1 µM

SMILES | Potency
CCOc1ccc(-n2c(SCC(=O)Nc3ccccc3C)n[nH]c2=O)cc1 | inconclusive [inhibitor, single point]
C[C@@]12C(=O)N(c3cccc(F)c3)C(=O)N1[C@H](c1ccc(F)cc1)[C@@H]1C(=O)N(C3CCCCC3)C(=O)[C@@H]12 | inconclusive [inhibitor, full curve, poor fit]
CCOc1cc(C(=O)Nc2ccc(S(=O)(=O)Nc3cc(C)on3)cc2)cc(OCC)c1OCC | inconclusive [inhibitor, single point]
N#CCSc1ccccc1NC(=O)COC(=O)Cc1c[nH]c2ccccc12 | active: 10.4 µM
Cc1cc(/C=C2\Sc3ccccc3N2C)cc(C)[n+]1CC1CCCO1 (stereo not drawn) | inconclusive [inhibitor, full curve]
C=CC[n+]1c(C)csc1Nc1cccc(Br)c1 | inactive
COc1ccc(/C=C2\SC(=S)N(CCC(=O)NCCCN3CCOCC3)C2=O)cc1 | inconclusive [inhibitor, partial curve]
COc1ccc(S(=O)NC2CCCCC2)c(OC)c1C (stereo not drawn) | inactive
CCN(CC)S(=O)(=O)c1cc(NC(=O)NCCCl)ccc1C | inconclusive [inhibitor, partial curve]
CC(C)(C)NC(=O)COC(=O)c1c2c(nc3ccccc13)CCC2 | inconclusive [inhibitor, partial curve, poor fit]
COc1ccccc1NC(=O)c1coc(=O)c(Br)c1 | inactive
O=C(CSc1nc2ccccc2c(=O)[nH]1)c1cccs1 | inactive
Cc1ccc(Nc2c([N+](=O)[O-])ccc3nonc23)cc1C | inconclusive [inhibitor, single point]
O=C(O)CSc1nnc(Cc2cccc3ccccc23)n1-c1cc(C(F)(F)F)cc(C(F)(F)F)c1 | inconclusive [inhibitor, partial curve, poor fit]
CCOC(=O)c1oc2ccc(S(=O)(=O)Nc3ccc4c(c3)n(C)c(=O)n4C)cc2c1C | inconclusive [inhibitor, partial curve]
COc1ccccc1CCNC(=O)C(=O)NCC1OCCN1C(=O)c1ccc(Cl)cc1 (stereo not drawn) | inconclusive [inhibitor, full curve]
O=C(c1ccccc1)N1CCOC12CCN(c1ncc(C(F)(F)F)cc1Cl)CC2 | inconclusive [inhibitor, single point]
CCOC(=O)CCCNC(=O)CSc1nc2ccc(OCC)cc2[nH]1 | inconclusive [inhibitor, single point]
Cc1ccc(Cl)cc1N(Cc1ccc(C(=O)NCc2cccnc2)cc1)S(=O)(=O)c1ccccc1 | inconclusive [inhibitor, partial curve]
CCOc1ncccc1C(=O)OCC(=O)Nc1nnc(-c2ccccc2)o1 | inconclusive [inhibitor, single point]
Cc1ccc([N+](=O)[O-])c(C(=O)N/N=C/c2cccs2)c1 | inconclusive [inhibitor, single point]
Cc1c(C(=O)N2CCCc3ccccc32)oc2ccccc12 | inconclusive [inhibitor, partial curve]
CC(=O)c1c(C)[nH]c(C(=O)OCC(=O)N(C)C)c1C | inactive

SMILES | Potency
CCCNC(=S)Nc1ccc(Nc2ccccc2)cc1 | inactive
CC(=O)c1ccc(NC(=O)CCNC(=O)c2ccccc2Cl)cc1 | inactive
COc1ccc(NC(=O)C2CCCN(S(=O)(=O)c3ccc4c(c3)CCCN4C(C)=O)C2)cc1 (stereo not drawn) | active: 11.7 µM
CC1=C(C(=O)OC(C)C)C(c2ccc(C)o2)C(C(=O)OC(C)C)=C(C)N1 | active: 10.4 µM
Cn1c(N)c(S(=O)(=O)N2CCN(Cc3ccccc3)CC2)c(=O)n(C)c1=O | inconclusive [inhibitor, full curve, poor fit]
COCCn1c(C)cc(C(=O)CSc2n[nH]c(N)n2)c1C | inactive
Cc1ccc(C(C(=O)NC2CCCC2)N(Cc2cccs2)C(=O)CNC(=O)c2cccs2)o1 (stereo not drawn) | inconclusive [inhibitor, single point]
COc1ccc(Cl)cc1NC(=O)CCn1cnc2ccccc2c1=O | inactive
CCCCN(C)CCCNC(=O)c1cc(Nc2ccc(OC)c(OC)c2)nc2ccccc12 | inconclusive [inhibitor, partial curve]
Cc1ccc(-c2cc(C(=O)Nc3cnn(C(C)C)c3)no2)cc1 | inactive
COc1ccc(C(=O)n2nc(C)cc2Nc2ccccc2)cc1 | inactive
O=c1cc(-c2ccc(O)c(O)c2)oc2cc(O)c(C3OC(CO)C(O)C(O)C3O)c(O)c12 (stereo not drawn) | inactive
CCOc1ccc(C(C(=O)NCC2CCCO2)N(CCc2cccc(C)c2)C(=O)c2snc(C(N)=O)c2N)cc1 (stereo not drawn) | active: 9.28 µM
O=C(Nc1ccc(Cl)c(S(=O)(=O)N2CCCCC2)c1)c1cnccn1 | inconclusive [inhibitor, single point]
Cc1cc(C(=O)O)ccc1-c1ccc(/C=C2\NC(=O)N(Cc3ccc(F)cc3)C2=O)o1 | inconclusive [inhibitor, single point]
CCOC(=O)CC(C#N)c1cn(C)c2ccccc12 (stereo not drawn) | inconclusive [inhibitor, single point]
O=Nc1c(O)n(Cc2cccc(C(F)(F)F)c2)c2ccccc12 | inconclusive [inhibitor, partial curve]
COC(=O)c1ccc(Nc2ccc3nonc3c2[N+](=O)[O-])cc1 | inactive
CCN(C(=O)COC(=O)CCC1CCCC1)c1c(N)n(Cc2ccccc2)c(=O)[nH]c1=O | inactive
CCOC(=O)c1ccc(S(=O)(=O)N2CCC(C(=O)Nc3nnc(C)o3)CC2)cc1 | inconclusive [inhibitor, single point]
C=CCSc1nnc(-c2sc(-c3ccccc3)nc2C)n1C | inactive
CC1C(C#N)=C(SCC(N)=O)NC2=C1C(=O)CC(C)(C)C2 (stereo not drawn) | inactive
